The antibiotic and cytotoxicity screens of Wong et al. (2023)
The list shows a part of the results.

Experiments:
HSkMC = human skeletal muscle cells; assay: cytotoxicity call (relative viability < 0.9); conditions: 10 µM
HepG2 = assay: cytotoxicity call (relative viability < 0.9); conditions: 10 µM
S. aureus RN4220 = assay: growth inhibition call (relative growth <= 0.2); conditions: 50 µM

Compound	cytotoxicity call (HSkMC)	cytotoxicity call (HepG2)	growth inhibition call (S. aureus RN4220)
C[C@@H]1CN([C@H](C)CO)S(=O)(=O)c2ccc(C#Cc3ccccc3F)cc2O[C@H]1CN(C)CC1CCOCC1	inactive	inactive	inactive
Cc1noc(C)c1NC(=O)Nc1ccc2c(c1)CC(=O)N([C@H](C)CO)C[C@@H](C)[C@H](CN(C)S(=O)(=O)c1cccs1)O2	inactive	inactive	inactive
C[C@@H]1CCCCO[C@@H](CN(C)Cc2ccc3c(c2)OCO3)[C@H](C)CN([C@@H](C)CO)C(=O)c2cc(NC(=O)Nc3ccc(F)cc3)ccc2O1	inactive	inactive	inactive
C[C@@H]1CCCCO[C@@H](CN(C)C(=O)Nc2ccc3c(c2)OCO3)[C@@H](C)CN([C@H](C)CO)C(=O)c2cc(NC(=O)Nc3cccc4ccccc34)ccc2O1	inactive	inactive	inactive
CC(C)NC(=O)Nc1cccc2c1O[C@H](CN(C)Cc1ccc3c(c1)OCO3)[C@H](C)CN([C@H](C)CO)C2=O	inactive	inactive	inactive
CN1CCN(C(=O)C[C@@H]2CC[C@@H]3[C@H](COC[C@H](O)CN3S(=O)(=O)c3cccc(F)c3)O2)CC1	inactive	inactive	inactive
CO[C@H]1CN(C)C(=O)c2ccc(NC(=O)Nc3ccccc3)cc2OC[C@@H](C)N(C(=O)CN(C)C)C[C@H]1C	inactive	inactive	inactive
C[C@H]1CN([C@@H](C)CO)C(=O)c2ccccc2-c2ccccc2CO[C@H]1CN(C)Cc1cccc(C(F)(F)F)c1	inactive	inactive	inactive
O=C(Cc1ccncc1)Nc1ccc2c(c1)[C@H]1C[C@H](CC(=O)N3CCc4ccccc4C3)O[C@H](CO)[C@H]1O2	inactive	inactive	inactive
COCC(=O)Nc1ccc2c(c1)OC[C@H](C)N(C(=O)Cc1ccccn1)C[C@@H](C)[C@@H](OC)CN(C)C2=O	inactive	inactive	inactive
C[C@H](CO)N1C[C@H](C)[C@@H](CN(C)C(=O)c2ccc(N3CCN(C)CC3)cc2)OCc2cnnn2CCCC1=O	inactive	inactive	inactive
C[C@@H]1CN([C@H](C)CO)C(=O)c2cc(NS(C)(=O)=O)ccc2O[C@H]1CN(C)Cc1ccc2c(c1)OCO2	inactive	inactive	inactive
CCCC(=O)Nc1ccc2c(c1)OC[C@@H](C)N(S(=O)(=O)c1cn(C)cn1)C[C@H](C)[C@@H](OC)CN(C)C2=O	inactive	inactive	inactive
C[C@@H]1CN([C@@H](C)CO)C(=O)Cc2cc(NC(=O)Cc3ccccc3)ccc2O[C@H]1CN(C)C(=O)Nc1cccc2ccccc12	inactive	inactive	inactive
Nc1ccn([C@H]2C[C@H](O)[C@@H](CO)O2)c(=O)n1	inactive	inactive	inactive
C[C@@H]1CN([C@@H](C)CO)C(=O)c2cc(NC(=O)c3ccccc3)ccc2O[C@@H](C)CCCCO[C@H]1CN(C)C(=O)CCC(F)(F)F	inactive	inactive	inactive
COc1ccc2c3c(n(c2c1)C)[C@@H](CO)N(C[C@]13CN(Cc2cccc(c2)F)C1)C(=O)C1CCOCC1	active	inactive	inactive
C[C@H]1CN([C@@H](C)CO)C(=O)c2cccc(NC(=O)CCCCCC(=O)Nc3ccccc3N)c2O[C@@H]1CN(C)S(C)(=O)=O	inactive	inactive	inactive
CC(C)NC(=O)Nc1ccc2c(c1)C(=O)N([C@H](C)CO)C[C@H](C)[C@H](CN(C)Cc1ccc(-c3ccccc3)cc1)O2	inactive	inactive	inactive
Cc1ccc(S(=O)(=O)Nc2ccc3c(c2)CC(=O)N([C@H](C)CO)C[C@@H](C)[C@H](CN(C)S(=O)(=O)c2ccccc2)O3)cc1	inactive	inactive	inactive
COC1C(C(=O)O)OC(C)C(O)C1O.COC1OC(C(=O)O)C(O)C(O)C1O (stereo not drawn) [ALGINIC ACID [Mol Wt ~200,000; monomers shown]]			inactive
CC(=O)OC1CCC2(C)C(CCC3(C)C2CC=C2C4CC(C)(C)CCC4(C)CCC23C)C1(C)C (stereo not drawn) [beta-AMYRIN ACETATE]			inactive
CCCCCC=CCCC(=O)NC1C(Oc2c3cc4cc2Oc2ccc(cc2Cl)C(OC2OC(CO)C(O)C(O)C2NC(C)=O)C2NC(=O)C(NC(=O)C4NC(=O)C4NC(=O)C(Cc5ccc(c(Cl)c5)O3)NC(=O)C(N)c3ccc(O)c(c3)Oc3cc(O)cc4c3)c3ccc(O)c(c3)-c3c(OC4OC(CO)C(O)C(O)C4O)cc(O)cc3C(C(=O)O)NC2=O)OC(CO)C(O)C1O (stereo not drawn) [TEICOPLANIN [A(2-1) shown]]			active
CC(C)CCCC(C)C1CCC2C3CCC4CC(O)CCC4(C)C3CCC12C (stereo not drawn) [5alpha-CHOLESTANOL]			inactive
COC(=O)[C@H]1[C@H](C(=O)O)[C@@]2(C(=O)Nc3ccc(C#Cc4ccc(OC)cc4)cc32)[C@@H](c2ccccc2)N1C	inactive	inactive	inactive

Compound	cytotoxicity call (HSkMC)	cytotoxicity call (HepG2)	growth inhibition call (S. aureus RN4220)
CCCCCC=CCCC(=O)NC1C(Oc2c3cc4cc2Oc2ccc(cc2Cl)C(OC2OC(CO)C(O)C(O)C2NC(C)=O)C2NC(=O)C(NC(=O)C4NC(=O)C4NC(=O)C(Cc5ccc(c(Cl)c5)O3)NC(=O)C(N)c3ccc(O)c(c3)Oc3cc(O)cc4c3)c3ccc(O)c(c3)-c3c(OC4OC(CO)C(O)C(O)C4O)cc(O)cc3C(C(=O)O)NC2=O)OC(CO)C(O)C1O (stereo not drawn) [TEICOPLANIN [A(2-1) shown] ]	inactive	inactive	
O=C(C[C@H]1C=C[C@H](NC(=O)c2ccncc2)[C@H](CO)O1)NCc1ccncn1	inactive	inactive	inactive
CC(C)CCCC(C)C1CCC2C3CC(=O)C4CC(O)CCC4(C)C3CCC12C (stereo not drawn) [5alpha-CHOLESTAN-3beta-OL-6-ONE]			inactive
CC(=O)OC1CCC2(C)C(CCC3(C)C2CC=C2C4CC(C)(C)CCC4(C)CCC23C)C1(C)C (stereo not drawn) [beta-AMYRIN ACETATE ]	inactive	inactive	
CC(C=CC=C(C)C=CC1=C(C)C(=O)CCC1(C)C)=CC=CC=C(C)C=CC=C(C)C=CC1=C(C)C(=O)CCC1(C)C [CANTHAXANTHIN (euglenanone) ]	inactive	inactive	
CC(C)CCCC(C)C1CCC2C3CC(=O)C4CC(O)CCC4(C)C3CCC12C (stereo not drawn) [5alpha-CHOLESTAN-3beta-OL-6-ONE ]	inactive	inactive	
CC(C)(CO)C(O)C(=O)NCCC(=O)[O-].[Na+] (stereo not drawn) [PANTOTHENIC ACID(d) Na salt]			inactive
C[C@H](CO)N1C[C@H](C)[C@@H](CN(C)Cc2ccccc2)Oc2ccc(NC(=O)Nc3ccc(C(F)(F)F)cc3)cc2C1=O	active	active	inactive
CC(C)CCC[C@@H](C)[C@H]1CC[C@H]2[C@@H]3C[C@@H](O)[C@@]4(O)C[C@@H](O)CC[C@]4(C)[C@H]3CC[C@]12C [CHOLESTAN-3beta,5alpha,6beta-TRIOL ]	active	active	
CC(C)CCCC(C)C1CCC2C3CCC4CC(O)CCC4(C)C3CCC12C (stereo not drawn) [5alpha-CHOLESTANOL ]	inactive	inactive	
COC1C(C(=O)O)OC(C)C(O)C1O.COC1OC(C(=O)O)C(O)C(O)C1O (stereo not drawn) [ALGINIC ACID [Mol Wt ~200,000; monomers shown] ]	inactive	active	
C[C@@H]1CCCCO[C@H](CN(C)Cc2ccc(C(=O)O)cc2)[C@H](C)CN([C@H](C)CO)C(=O)c2cc(NC(=O)Cc3ccccc3)ccc2O1	inactive	inactive	inactive
COc1ccc(CN(C)C[C@H]2OCCCC[C@@H](C)Oc3ccc(NC(=O)c4ccccc4)cc3C(=O)N([C@H](C)CO)C[C@@H]2C)cc1	inactive	inactive	inactive
[O-][n+]1onc2c1CCc1c-2nn(-c2ccccc2)[n+]1[O-]	inactive	inactive	inactive
COC1C(O)CC(=O)OC(C)CC=CC=CC(O)C(C)CC(CC=O)C1OC1OC(C)C(OC2CC(C)(O)C(OC(=O)CC(C)C)C(C)O2)C(N(C)C)C1O (stereo not drawn) [KITASAMYCINS [A1 shown]]			active
CC(C=CC=C(C)C=CC1=C(C)C(=O)CCC1(C)C)=CC=CC=C(C)C=CC=C(C)C=CC1=C(C)C(=O)CCC1(C)C [CANTHAXANTHIN (euglenanone)]			inactive
COc1ccc(S(=O)(=O)Nc2ccc3c(c2)C(=O)N([C@@H](C)CO)C[C@@H](C)[C@H](CN(C)C(=O)Nc2ccc(F)cc2)OCCCC[C@@H](C)O3)cc1	inactive	inactive	inactive
CC(C=CC1(O)C(C)=CC(=O)CC1(C)C)=CC(=O)O (mixture of isomers) [ABSCISIC ACID (cis,trans; +/-)]			inactive
Cc1cc(=O)[nH]c(=S)[nH]1	inactive	inactive	inactive
CC(C)CCC[C@@H](C)[C@H]1CC[C@H]2[C@@H]3C[C@@H](O)[C@@]4(O)C[C@@H](O)CC[C@]4(C)[C@H]3CC[C@]12C [CHOLESTAN-3beta,5alpha,6beta-TRIOL]			inactive
COC1C(O)CC(=O)OC(C)CC=CC=CC(O)C(C)CC(CC=O)C1OC1OC(C)C(OC2CC(C)(O)C(OC(=O)CC(C)C)C(C)O2)C(N(C)C)C1O (stereo not drawn) [KITASAMYCINS [A1 shown] ]	inactive	inactive	
COCCOC(=O)N1C(=O)[C@@]2(c3cc(C#CCNC(N)=O)ccc31)[C@H](C(=O)N1CCCCCCC1)[C@H]1C(=O)O[C@H](c3ccccc3)[C@H](c3ccccc3)N1[C@@H]2c1ccc(O)cc1	inactive	inactive	inactive
CC(C)NC(=O)N(C)C[C@@H]1Oc2ccc(NS(=O)(=O)c3ccc(Cl)cc3)cc2C(=O)N([C@@H](C)CO)C[C@@H]1C	inactive	inactive	inactive
CC(C=CC1(O)C(C)=CC(=O)CC1(C)C)=CC(=O)O (mixture of isomers) [ABSCISIC ACID (cis,trans; +/-) ]	inactive	inactive	
